The other results are listed elsewhere or left out.
Tests used:
Assay in all cases: glycan array binding signal (z-score within array); higher = stronger binding
Details in all cases: glycan notation: IUPAC condensed, linker removed
[1] = molecular target: Gal(b1-4)GlcNAc(b1-2)Man(a1-6)[Man(a1-3)]Man(b1-4)GlcNAc(b1-4)GlcNAc
Method in brief: (§1)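 Negative Z-scores can be read as non-binding. The Z-score is calculated within each array and then averaged across arrays of one protein sequence at different concentrations or buffers and across linkers. Arrays, 3228 in all, were curated from the Consortium for Functional Glycomics database and kept only where the protein sequence was available.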

[2] = molecular target: Gal(b1-4)GlcNAc(b1-2)[Gal(b1-4)GlcNAc(b1-4)]Man(a1-3)[Gal(b1-4)GlcNAc(b1-2)Man(a1-6)]Man(b1-4)GlcNAc(b1-4)GlcNAc
Method in brief: as §1

[3] = molecular target: Gal(b1-4)GlcNAc(b1-2)[Gal(b1-4)GlcNAc(b1-4)]Man(a1-3)[Gal(b1-4)GlcNAc(b1-2)[Gal(b1-4)GlcNAc(b1-6)]Man(a1-6)]Man(b1-4)GlcNAc(b1-4)GlcNAc
Method in brief: as §1

[4] = molecular target: Gal(b1-4)GlcNAc(b1-2)[Gal(b1-4)GlcNAc(b1-4)]Man(a1-3)[GlcNAc(b1-4)][Gal(b1-4)GlcNAc(b1-2)Man(a1-6)]Man(b1-4)GlcNAc(b1-4)GlcNAc
Method in brief: as §1

[5] = molecular target: Gal(b1-4)GlcNAc(b1-2)[Gal(b1-4)GlcNAc(b1-4)]Man(a1-3)[GlcNAc(b1-4)][Gal(b1-4)GlcNAc(b1-2)[Gal(b1-4)GlcNAc(b1-6)]Man(a1-6)]Man(b1-4)GlcNAc(b1-4)GlcNAc
Method in brief: as §1

[6] = molecular target: Gal(b1-4)GlcNAc(b1-2)[Gal(b1-4)GlcNAc(b1-6)]Man(a1-6)[Gal(b1-4)GlcNAc(b1-2)Man(a1-3)]Man(b1-4)GlcNAc(b1-4)GlcNAc
Method in brief: as §1

[7] = molecular target: Gal(b1-4)GlcNAc(b1-2)[Gal(b1-4)GlcNAc(b1-6)]Man(a1-6)[Gal(b1-4)GlcNAc(b1-2)Man(a1-3)]Man(b1-4)GlcNAc(b1-4)[Fuc(a1-6)]GlcNAc
Method in brief: as §1

[8] = molecular target: Gal(b1-4)GlcNAc(b1-2)[Gal(b1-4)GlcNAc(b1-6)]Man(a1-6)[GlcNAc(b1-4)][Gal(b1-4)GlcNAc(b1-2)Man(a1-3)]Man(b1-4)GlcNAc(b1-4)GlcNAc
Method in brief: as §1

[9] = molecular target: Gal(b1-4)GlcNAc(b1-2)[Gal(b1-4)GlcNAc(b1-6)]Man(a1-6)[GlcNAc(b1-4)][Gal(b1-4)GlcNAc(b1-2)[Gal(b1-4)GlcNAc(b1-4)]Man(a1-3)]Man(b1-4)GlcNAc(b1-4)[Fuc(a1-6)]GlcNAc
Method in brief: as §1

[10] = molecular target: Gal(b1-4)GlcNAc(b1-3)Gal(b1-3)GalNAc
Method in brief: as §1

[11] = molecular target: Gal(b1-4)GlcNAc(b1-3)Gal(b1-3)GlcNAc
Method in brief: as §1

[12] = molecular target: Gal(b1-4)GlcNAc(b1-3)Gal(b1-4)Glc
Method in brief: as §1

[13] = molecular target: Gal(b1-4)GlcNAc(b1-3)Gal(b1-4)GlcNAc
Method in brief: as §1

[14] = molecular target: Gal(b1-4)GlcNAc(b1-3)Gal(b1-4)GlcNAc(b1-2)Man(a1-3)[Gal(b1-4)GlcNAc(b1-3)Gal(b1-4)GlcNAc(b1-2)Man(a1-6)]Man(b1-4)GlcNAc(b1-4)GlcNAc
Method in brief: as §1

[15] = molecular target: Gal(b1-4)GlcNAc(b1-3)Gal(b1-4)GlcNAc(b1-2)Man(a1-3)[Gal(b1-4)GlcNAc(b1-3)Gal(b1-4)GlcNAc(b1-2)Man(a1-6)]Man(b1-4)GlcNAc(b1-4)[Fuc(a1-6)]GlcNAc
Method in brief: as §1

[16] = molecular target: Gal(b1-4)GlcNAc(b1-3)Gal(b1-4)GlcNAc(b1-2)[Gal(b1-4)GlcNAc(b1-3)Gal(b1-4)GlcNAc(b1-6)]Man(a1-6)[Gal(b1-4)GlcNAc(b1-3)Gal(b1-4)GlcNAc(b1-2)Man(a1-3)]Man(b1-4)GlcNAc(b1-4)GlcNAc
Method in brief: as §1

[17] = molecular target: Gal(b1-4)GlcNAc(b1-3)Gal(b1-4)GlcNAc(b1-2)[Gal(b1-4)GlcNAc(b1-3)Gal(b1-4)GlcNAc(b1-6)]Man(a1-6)[Gal(b1-4)GlcNAc(b1-3)Gal(b1-4)GlcNAc(b1-2)Man(a1-3)]Man(b1-4)GlcNAc(b1-4)[Fuc(a1-6)]GlcNAc
Method in brief: as §1

[18] = molecular target: Gal(b1-4)GlcNAc(b1-3)Gal(b1-4)GlcNAc(b1-3)Gal(b1-4)GlcNAc
Method in brief: as §1

[19] = molecular target: Gal(b1-4)GlcNAc(b1-3)Gal(b1-4)GlcNAc(b1-3)Gal(b1-4)GlcNAc(b1-2)Man(a1-3)[Gal(b1-4)GlcNAc(b1-3)Gal(b1-4)GlcNAc(b1-3)Gal(b1-4)GlcNAc(b1-2)Man(a1-6)]Man(b1-4)GlcNAc(b1-4)GlcNAc
Method in brief: as §1

[20] = molecular target: Gal(b1-4)GlcNAc(b1-3)Gal(b1-4)GlcNAc(b1-3)Gal(b1-4)GlcNAc(b1-2)Man(a1-3)[Gal(b1-4)GlcNAc(b1-3)Gal(b1-4)GlcNAc(b1-3)Gal(b1-4)GlcNAc(b1-2)Man(a1-6)]Man(b1-4)GlcNAc(b1-4)[Fuc(a1-6)]GlcNAc
Method in brief: as §1

[21] = molecular target: Gal(b1-4)GlcNAc(b1-3)Gal(b1-4)GlcNAc(b1-3)Gal(b1-4)GlcNAc(b1-2)[Gal(b1-4)GlcNAc(b1-3)Gal(b1-4)GlcNAc(b1-3)Gal(b1-4)GlcNAc(b1-6)]Man(a1-6)[Gal(b1-4)GlcNAc(b1-3)Gal(b1-4)GlcNAc(b1-3)Gal(b1-4)GlcNAc(b1-2)Man(a1-3)]Man(b1-4)GlcNAc(b1-4)[Fuc(a1-6)]GlcNAc
Method in brief: as §1

[22] = molecular target: Gal(b1-4)GlcNAc(b1-3)Gal(b1-4)GlcNAc(b1-3)Gal(b1-4)GlcNAc(b1-3)Gal(b1-4)GlcNAc(b1-2)Man(a1-3)[Gal(b1-4)GlcNAc(b1-3)Gal(b1-4)GlcNAc(b1-3)Gal(b1-4)GlcNAc(b1-3)Gal(b1-4)GlcNAc(b1-2)Man(a1-6)]Man(b1-4)GlcNAc(b1-4)GlcNAc
Method in brief: as §1

B1: diCBM40 CPF071 (Clostridium perfringens) (protein)
chain: MAHHHHHHVGTGSNDDDDKSPDPMLSSLGEYKDINLESSNASNITYDLEKYKNLDEGTIVVRFNSKDSKIQSLLGISNSKTKNGYFNFYVTNSRVGFELRNQKNEGNTQNGTENLVHMYKDVALNDGDNTVALKIEKNKGYKLFLNGKMIKEVKDTNTKFLNNIENLDSAFIGKTNRYGQSNEYNFKGNIGFMNIYNEPLGDDYLLSKTGETKALNGSELGSGSGLSSLGEYKDINLESSNASNITYDLEKYKNLDEGTIVVRFNSKDSKIQSLLGISNSKTKNGYFNFYVTNSRVGFELRNQKNEGNTQNGTENLVHMYKDVALNDGDNTVALKIEKNKGYKLFLNGKMIKEVKDTNTKFLNNIENLDSAFIGKTNRYGQSNEYNFKGNIGFMNIYNEPLGDDYLLSKTGETK
- glycan array binding signal (z-score) [1]: -0.257
- glycan array binding signal (z-score) [2]: 0.035
- glycan array binding signal (z-score) [3]: -0.314
- glycan array binding signal (z-score) [4]: -0.246
- glycan array binding signal (z-score) [5]: -0.234
- glycan array binding signal (z-score) [6]: -0.16
- glycan array binding signal (z-score) [7]: -0.301
- glycan array binding signal (z-score) [8]: -0.246
- glycan array binding signal (z-score) [9]: -0.035
- glycan array binding signal (z-score) [10]: -0.32
- glycan array binding signal (z-score) [11]: -0.132
- glycan array binding signal (z-score) [12]: -0.268
- glycan array binding signal (z-score) [13]: -0.344
- glycan array binding signal (z-score) [14]: -0.322
- glycan array binding signal (z-score) [15]: -0.21
- glycan array binding signal (z-score) [16]: 0.015
- glycan array binding signal (z-score) [17]: -0.122
- glycan array binding signal (z-score) [18]: -0.288
- glycan array binding signal (z-score) [19]: 0.154
- glycan array binding signal (z-score) [20]: -0.245
- glycan array binding signal (z-score) [21]: 0.214
- glycan array binding signal (z-score) [22]: -0.171
